Measurements taken from PubChem BioAssay AID686970 (National Center for Advancing Translational Sciences (NCATS), 2013).
The whole screen tested about 360,000 compounds, of which about 6,000 (1.7%) were called active. Inconclusive means that the source gave no clear call. Such entries were picked first, then a sample of the others. Calls come from the whole dose curve; as a rule, active = well fitted cell-killing curve with a large enough effect; inconclusive = small, poorly fitted or top-dose-only effect, or effect the other way; inactive = flat fitted curve, though single readings scatter. Potencies of inconclusive entries are left out as doubtful fits.
Potency is the fitted concentration of half-maximal effect; tags give direction and shape of the fitted curve.

Assay: qHTS for induction of synthetic lethality in tumor cells producing 2HG: qHTS for the HT-1080-NT fibrosarcoma cell line;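 note: NT is the 2HG producing partner of a matched IDH1 knockdown line; nearly all actives have a fitted effect of over 55% in size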;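 for activity, negative = less viability: 0% = DMSO-treated cells and -100% = media-only wells without cells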
Conditions: HT-1080-NT fibrosarcoma viability, CellTiter-Glo ATP luminescence, 48 h; activity, negative = less viability: at 46.1 µM (top of the series) unless noted
Method in brief: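 Compounds were tested in concentration-response format on HT-1080-NT cells for 48 hours at 37 degrees C. Cell viability came from CellTiter-Glo luminescence; curves were classified by r2, response magnitude and activity.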
For `COc1ccc(-c2nc(CCNC(=O)c3ccco3)cs2)cc1OC`, the Potency was “inactive”. For `CN(C(=O)COC(=O)c1ccc(S(=O)(=O)N2CCOCC2)cc1)c1ccccc1`, the Potency was “inactive”. With `CC(C)N(Cc1c(O)ccc2c(=O)c(-c3ccc(Cl)cc3)coc12)C(C)C` the Potency was inconclusive [cytotoxic, partial curve]. In the case of `COC(=O)c1c(-c2ccc(N(C)C)cc2)sc2ccc(OC)cc12`, the Potency is reported as inconclusive [cytotoxic, single point]. In the case of `COc1ccc(-c2cc([C@H]3[C@@H]4C=CCC[C@@]4(C)C(=O)N3Cc3ccccc3)ccc2F)cc1OC`, the Potency is reported as inconclusive [cytotoxic, single point]. In the case of `CCOc1ccccc1NC(=O)C(=O)N/N=C/c1cc(Br)ccc1O`, the Potency is reported as inconclusive [cytotoxic, full curve]. For `O=C(CN1CCN(S(=O)(=O)c2cccc(F)c2)CC1)Nc1ccnn1C1CCCC1`, the Potency was “inactive”. For `COc1ccc(-c2csc(NC(C)c3nc4cc(Cl)c(Cl)cc4n3CCCO)n2)cc1` (stereo not given), the Potency was inconclusive [cytotoxic, single point]. With `CCc1nc2c(OCc3ccc(F)cc3)cccn2c1N(C)C(=O)C(C)C` the Potency was “inactive”. With `CCOC(=O)C(C)Sc1nc2c(cnn2-c2ccc(C)cc2)c(=O)[nH]1` (stereo not given) the Potency was inconclusive [cytotoxic, single point]. In the case of `C/C(=N\NC(=O)c1ccccc1F)c1ccccn1`, the Potency is reported as inconclusive [cytotoxic, partial curve, poor fit]. With `CC(C)CN1Cc2ccccc2Oc2cc(Br)ccc2S1(=O)=O` the Potency was “inactive”. For `O=c1[nH]cnc2scc(-c3cccs3)c12`, the activity, negative = less viability was inconclusive: 31.2%. In the case of `Cc1cc(-c2nnc(SCC(=O)Nc3ccc(F)c(F)c3)n2N)n[nH]1`, the Potency is reported as inconclusive [cytotoxic, single point]. For `O=S(=O)(c1ccc(N2CCN(c3ccc(F)cc3)CC2)cc1)N1CCCC1`, the Potency was “inactive”. In the case of `COc1ccc(-n2nnnc2C(CCc2ccccc2)N2CCN(C/C=C/c3ccccc3)CC2)cc1` (stereo not given), the Potency is reported as inconclusive [cytotoxic, single point]. In the case of `Cc1ccccc1-c1nsc(SCC(=O)Nc2ccc3c(c2)OCO3)n1`, the Potency is reported as inconclusive [cytotoxic, single point]. For `COc1ccc(N=Cc2c(C)[nH][nH]c2=O)cc1`, the Potency was inconclusive [cytotoxic, partial curve]. For `Cc1nc(NC(=O)CSc2ccc(-c3nc4ccccc4[nH]3)cn2)sc1C`, the Potency was active: 13 µM. With `CC(C)c1nnc(NC(=O)CCS(=O)(=O)c2ccccc2)s1` the Potency was inconclusive [cytotoxic, single point]. For `CC(C)(C)c1ccccc1NC(=O)Nc1nc(C(N)Cc2ccc(F)cc2)cs1` (stereo not given), the Potency was inconclusive [cytotoxic, single point]. With `CCOC(=O)[C@]12CCCC=C1N(Cc1ccccc1)C(=O)[C@H](CC(=O)N1CCCCCC1)C2` the Potency was “inactive”. For `Cc1ccc(C(C)C)cc1OCC(=O)N/N=C/c1ccc2c(c1)OCCO2`, the Potency was inconclusive [cytotoxic, single point]. For `O=C(c1ccco1)N1CCN(C(=O)c2ccc(-c3ccc(Cl)cc3)o2)CC1`, the Potency was “inactive”. For `Nc1nc(-c2ccccc2)c(N=Nc2cccc3ccccc23)s1`, the Potency was inconclusive [cytotoxic, single point]. With `CC(=O)Nc1ccc(NC(=O)C2(C)Cc3c(-c4cccc(C(N)=O)c4)ccnc3O2)cc1` (stereo not given) the activity, negative = less viability was inconclusive: 8.68%. With `Cn1nnnc1Sc1ncnc2scc(-c3ccc(F)cc3)c12` the Potency was inconclusive [cytotoxic, single point]. With `O=S(=O)(Nc1ccccc1OC(F)F)c1ccc(S(=O)(=O)N2CCCC2)cc1` the Potency was “inactive”. With `CCCNC(=O)COc1coc(CN2CCN(C(=O)c3ccco3)CC2)cc1=O` the Potency was “inactive”. For `COc1cccc(O)c1CN1CCCC(C(=O)c2cccc(C(F)(F)F)c2)C1` (stereo not given), the Potency was “inactive”. For `c1ccc(-c2cc3ccccc3nc2N2CCCC2)cc1`, the Potency was “inactive”. In the case of `COc1cc(/C=C/C(=O)c2cccc([N+](=O)[O-])c2)cc(OC)c1OC`, the Potency is reported as inconclusive [cytotoxic, single point]. With `O=C1c2ccccc2C2(c3ccccc3)N1CCN2C(=O)C(Cl)(Cl)Cl` (stereo not given) the Potency was inconclusive [cytotoxic, single point]. In the case of `CCCCn1c(N)c(N(CCOC)C(=O)COC(=O)CSc2cc(C)c3ccccc3n2)c(=O)[nH]c1=O`, the Potency is reported as “inactive”. With `CC1CC(C)(C)NC(=S)N1CCCC(=O)Nc1ccc(Br)cc1` (stereo not given) the Potency was “inactive”. In the case of `COc1cc(CNCCO)cc(Cl)c1OCc1ccc(Cl)cc1Cl`, the Potency is reported as active: 20.6 µM. For `CCCC(=O)Nc1cc(Cl)ccc1N1CCN(C(=O)CC)CC1`, the Potency was “inactive”. For `Cc1nc(SCC(=O)N2CC(=O)Nc3ccccc32)c2c(C)c(C)sc2n1`, the Potency was inconclusive [cytotoxic, single point]. With `Cc1ccc(-n2nc(C)c(NC(=O)CCl)c2C)cc1` the Potency was inconclusive [cytotoxic, single point]. In the case of `COc1cc(C2c3c([nH]c(=O)[nH]c3=O)Nc3ccc4ccccc4c32)ccc1O` (stereo not given), the Potency is reported as “inactive”. In the case of `Cc1cc(-n2c(SCC(=O)NCCC3=CCCCC3)nc3n[nH]c(C)c3c2=N)ccc1Cl`, the Potency is reported as active: 18.4 µM. In the case of `CCn1ncc(C2=NOC(C(=O)Nc3c(C)nn(Cc4ccc(F)cc4)c3C)C2)c1C` (stereo not given), the Potency is reported as inconclusive [rising, single point]. With `Cn1c(C=O)c(C#Cc2ccccc2)c2ccccc21` the Potency was “inactive”. In the case of `Cc1ccc(-c2ccc(/C=N/NC(=O)Cc3nnc(N)s3)o2)cc1Cl`, the Potency is reported as “inactive”. For `Cc1ccc2cc(C=C(C#N)C#N)c(N3CCCCC3)nc2c1`, the Potency was inconclusive [cytotoxic, single point]. In the case of `Cc1ccccc1COc1cccn2c(N(C)C(=O)CCC3CCCC3)c(C)nc12`, the Potency is reported as inconclusive [cytotoxic, single point]. With `S=C(NCCc1ccc(Cl)cc1)Nc1ccc(Cl)cc1Cl` the Potency was inconclusive [cytotoxic, single point]. For `O=C1N(Cc2cccc(Cl)c2)C[C@@H]2C[C@@H](c3c[nH]c4ccccc34)N3CCC[C@@]123`, the Potency was inconclusive [cytotoxic, partial curve]. In the case of `COc1ccc(-c2c(C(=O)c3ccccc3)[nH]c(N)c2C(=O)NCc2ccccc2)cc1OC`, the Potency is reported as “inactive”. With `CCCNC(=O)CCn1c(=S)oc2ccccc21` the Potency was “inactive”. For `COc1ccc(COC(=O)N/N=C/c2cccs2)cc1`, the Potency was “inactive”. In the case of `CC1(C)CC2(CC(c3ccccc3F)c3cc(Cl)c(O)cc3O2)NC(=S)N1` (stereo not given), the Potency is reported as inconclusive [cytotoxic, partial curve, poor fit]. For `COc1ccc(Br)cc1C=NNS(=O)(=O)c1ccc(C)cc1`, the Potency was inconclusive [cytotoxic, single point]. In the case of `O=c1c2c3c(sc2nc(N2CCNCC2)n1CCc1ccccc1)CCCCC3`, the Potency is reported as “inactive”. With `COc1ccc(OCC(O)CN(CC(O)COc2ccc(OC)cc2)c2cccc(O)c2)cc1` (stereo not given) the Potency was inconclusive [cytotoxic, single point]. For `CCOc1c(Cl)cc(Cl)cc1CNCCNCCO`, the activity, negative = less viability was inconclusive: -30.4% [cytotoxic]. With `COc1ccc(N(C(=O)C2CCCCC2)S(=O)(=O)c2cccc3cccnc23)cc1` the Potency was “inactive”. In the case of `Nc1c(C(=O)Nc2ccc3c(c2)OCCO3)nnn1Cc1cccc(F)c1`, the Potency is reported as inconclusive [cytotoxic, full curve]. In the case of `c1ccc(CNc2c3ccccc3nc3ccccc23)cc1`, the Potency is reported as inconclusive [cytotoxic, single point]. In the case of `O=C(Nc1ccccc1)c1nnsc1S(=O)(=O)c1ccc(Cl)cc1`, the Potency is reported as active: 20.6 µM. For `CCOc1ccc(S(=O)(=O)Nc2cc(SCC(=O)O)c(O)c3ccccc23)cc1`, the Potency was active: 23.1 µM. For `O=C(Nc1nnc(COc2ccccc2F)s1)Nc1ccccc1F`, the Potency was inconclusive [cytotoxic, single point]. In the case of `Cc1ccc(S(=O)(=O)N2CCOCC2)cc1NC(=O)COC(=O)CCC(=O)c1ccc(F)cc1`, the Potency is reported as “inactive”. For `Cc1nc2cc(C(=O)N3c4ccccc4CC3C)ccc2s1` (stereo not given), the Potency was active: 11.6 µM. With `COc1ccccc1N(C)S(=O)(=O)c1ccc(C(=O)OCC(=O)c2c[nH]c3ccccc23)cc1` the Potency was “inactive”. With `COc1ccc(-c2ccc(-c3noc(-c4ccco4)n3)c(OC)n2)cc1` the Potency was inconclusive [cytotoxic, single point]. With `O=C(Nc1ccc(F)cc1)Nc1ccc(N2CCCC2)c(S(=O)(=O)Nc2ccccc2Cl)c1` the Potency was inconclusive [cytotoxic, full curve]. In the case of `CCOc1ccc(S(=O)(=O)Nc2cccc(C(=O)NCC3CCCO3)c2)cc1` (stereo not given), the Potency is reported as inconclusive [cytotoxic, single point]. With `COc1ccc(C(=O)N=C2SC3CS(=O)(=O)CC3N2c2ccc(N(C)C)cc2)cc1OC` (stereo not given) the Potency was “inactive”. With `Cc1cc(C)c2sc(N(CCCN(C)C)C(=O)c3ccc(Br)s3)nc2c1` the Potency was active: 23.1 µM. With `CCCCc1n[nH]c2c1/C(=N/O)CC(c1ccccc1)C2` (stereo not given) the Potency was inconclusive [cytotoxic, single point]. In the case of `Cc1ccn2c(=O)c(C(=O)O)cnc2c1`, the activity, negative = less viability is reported as inconclusive: -6.29% [cytotoxic]. For `O=C(Nc1nccs1)c1ccc2ccccc2n1`, the Potency was inconclusive [cytotoxic, partial curve, poor fit]. With `Nc1nnc(CC(=O)N/N=C/c2cc([N+](=O)[O-])cc(Br)c2O)s1` the Potency was “inactive”. With `Cc1nc(NC(=O)c2ccccc2)sc1Cc1ccc2c(c1)OCO2` the Potency was inconclusive [cytotoxic, partial curve].
